In the antibiotic and cytotoxicity screens of Wong et al. (2023):
The other results are listed elsewhere or left out.

Tests used:
HSkMC = human skeletal muscle cells; assay: cytotoxicity call (relative viability < 0.9); conditions: 10 µM
HepG2 = assay: cytotoxicity call (relative viability < 0.9); conditions: 10 µM
S. aureus RN4220 = assay: growth inhibition call (relative growth <= 0.2); conditions: 50 µM

CCCCNc1cc(C(=O)O)cc(S(N)(=O)=O)c1Oc1ccccc1
cytotoxicity call (HSkMC): inactive
cytotoxicity call (HepG2): inactive
growth inhibition call (S. aureus RN4220): inactive

C[C@H](CO)N1C[C@H](C)[C@@H](CN(C)Cc2ccccc2)Oc2c(NC(=O)C3CCOCC3)cccc2C1=O
cytotoxicity call (HSkMC): inactive
cytotoxicity call (HepG2): inactive
growth inhibition call (S. aureus RN4220): inactive

Cc1noc(C)c1S(=O)(=O)N(C)C[C@H]1OCCCC[C@H](C)Oc2ccc(N(C)C)cc2C(=O)N([C@H](C)CO)C[C@@H]1C
cytotoxicity call (HSkMC): inactive
cytotoxicity call (HepG2): inactive
growth inhibition call (S. aureus RN4220): inactive

Cc1noc(C)c1S(=O)(=O)Nc1ccc2c(c1)C(=O)N([C@@H](C)CO)C[C@@H](C)[C@H](CN(C)Cc1ccccc1)O2
cytotoxicity call (HSkMC): inactive
cytotoxicity call (HepG2): inactive
growth inhibition call (S. aureus RN4220): inactive

c1cncc(-c2nc3ccc4ccccc4c3c3c2CCCC3)c1
cytotoxicity call (HSkMC): inactive
cytotoxicity call (HepG2): inactive
growth inhibition call (S. aureus RN4220): inactive

C[C@@H]1CN([C@@H](C)CO)C(=O)Cc2cc(N(C)C)ccc2O[C@@H]1CN(C)S(=O)(=O)c1cn(C)cn1
cytotoxicity call (HSkMC): inactive
cytotoxicity call (HepG2): inactive
growth inhibition call (S. aureus RN4220): inactive

CC(C)NC(=O)N(C)C[C@@H]1Oc2ccc(NS(=O)(=O)c3cn(C)cn3)cc2C(=O)N([C@H](C)CO)C[C@H]1C
cytotoxicity call (HSkMC): inactive
cytotoxicity call (HepG2): inactive
growth inhibition call (S. aureus RN4220): inactive

C[C@H](CO)N1C[C@H](C)[C@H](CN(C)S(=O)(=O)c2ccc(C#N)cc2)Oc2ncc(Br)cc2C1=O
cytotoxicity call (HSkMC): inactive
cytotoxicity call (HepG2): inactive
growth inhibition call (S. aureus RN4220): inactive

C[C@H](CO)N1C[C@H](C)[C@@H](CN(C)Cc2ccc(Oc3ccccc3)cc2)Oc2c(NC(=O)Nc3cccc4ccccc34)cccc2C1=O
cytotoxicity call (HSkMC): active
cytotoxicity call (HepG2): active
growth inhibition call (S. aureus RN4220): inactive

C[C@@H]1CN([C@@H](C)CO)C(=O)Cc2cc(NS(=O)(=O)c3cn(C)cn3)ccc2O[C@@H]1CN(C)CC1CCCCC1
cytotoxicity call (HSkMC): inactive
cytotoxicity call (HepG2): inactive
growth inhibition call (S. aureus RN4220): inactive

COc1ccc(S(=O)(=O)Nc2ccc3c(c2)C(=O)N([C@H](C)CO)C[C@@H](C)[C@H](CN(C)C(=O)Nc2ccc(C(F)(F)F)cc2)OCCCC[C@H](C)O3)cc1
cytotoxicity call (HSkMC): inactive
cytotoxicity call (HepG2): inactive
growth inhibition call (S. aureus RN4220): inactive

C[C@H]1CN([C@@H](C)CO)C(=O)c2cc(C#CC3(O)CCCC3)cnc2O[C@@H]1CN(C)S(C)(=O)=O
cytotoxicity call (HSkMC): inactive
cytotoxicity call (HepG2): inactive
growth inhibition call (S. aureus RN4220): inactive

COc1ccc(CN(C)C[C@@H]2Oc3ccc(NS(C)(=O)=O)cc3CC(=O)N([C@H](C)CO)C[C@H]2C)cc1
cytotoxicity call (HSkMC): inactive
cytotoxicity call (HepG2): inactive
growth inhibition call (S. aureus RN4220): inactive

CO[C@@H]1CN(C)C(=O)c2cc(NS(C)(=O)=O)ccc2OC[C@@H](C)N(S(C)(=O)=O)C[C@@H]1C
cytotoxicity call (HSkMC): inactive
cytotoxicity call (HepG2): inactive
growth inhibition call (S. aureus RN4220): inactive

COc1ccc(NC(=O)Nc2ccc3c(c2)C(=O)N([C@H](C)CO)C[C@@H](C)[C@@H](CN(C)Cc2ccc(C(=O)O)cc2)OCCCC[C@@H](C)O3)cc1
cytotoxicity call (HSkMC): inactive
cytotoxicity call (HepG2): inactive
growth inhibition call (S. aureus RN4220): inactive

NC[C@H]1CCS(=O)(=O)C1
cytotoxicity call (HSkMC): inactive
cytotoxicity call (HepG2): inactive
growth inhibition call (S. aureus RN4220): inactive

CC(C)(C)[S@@](=O)N1Cc2cc(C(=O)NCCN3CCCCC3)nc(-c3cccc(-c4ccc(C#N)cc4)c3)c2[C@H]1CCO
cytotoxicity call (HSkMC): inactive
cytotoxicity call (HepG2): inactive
growth inhibition call (S. aureus RN4220): inactive

CC(C)(C)OC(=O)Nc1cccc([C@@H]2CC(=O)N(C(=O)OCc3ccccc3)[C@@H]2C(=O)Nc2cccc3cccnc23)c1
cytotoxicity call (HSkMC): inactive
cytotoxicity call (HepG2): inactive
growth inhibition call (S. aureus RN4220): inactive

Fc1cc2ccncc2cc1Cl
cytotoxicity call (HSkMC): inactive
cytotoxicity call (HepG2): inactive
growth inhibition call (S. aureus RN4220): inactive

O=C(C[C@H]1CC[C@H]2[C@@H](COC[C@@H](O)CN2C(=O)C2CC2)O1)NCc1ccncc1
cytotoxicity call (HSkMC): inactive
cytotoxicity call (HepG2): inactive
growth inhibition call (S. aureus RN4220): inactive

O=C(C[C@@H]1CC[C@H]2[C@@H](COC[C@@H](O)CN2S(=O)(=O)c2ccccc2)O1)NCc1ccc2c(c1)OCO2
cytotoxicity call (HSkMC): inactive
cytotoxicity call (HepG2): inactive
growth inhibition call (S. aureus RN4220): inactive

Nc1nc(=O)[nH]cc1NC(=O)c1ccccc1
cytotoxicity call (HSkMC): inactive
cytotoxicity call (HepG2): inactive
growth inhibition call (S. aureus RN4220): inactive

C[C@H]1CN([C@@H](C)CO)C(=O)Cc2cc(NC(=O)Cc3cn(C)c4ccccc34)ccc2O[C@H]1CN(C)C(=O)Nc1ccc(C(F)(F)F)cc1
cytotoxicity call (HSkMC): inactive
cytotoxicity call (HepG2): inactive
growth inhibition call (S. aureus RN4220): inactive

COCC(=O)N1C[C@@H](C)[C@@H](OC)CN(C)C(=O)c2ccc(NC(=O)Nc3cccc(F)c3)cc2OC[C@H]1C
cytotoxicity call (HSkMC): inactive
cytotoxicity call (HepG2): inactive
growth inhibition call (S. aureus RN4220): inactive

COc1cccc(S(=O)(=O)Nc2ccc3c(c2)[C@H]2C[C@@H](CC(=O)NCc4cccc(F)c4)O[C@@H](CO)[C@H]2O3)c1
cytotoxicity call (HSkMC): inactive
cytotoxicity call (HepG2): inactive
growth inhibition call (S. aureus RN4220): inactive

C[C@@H]1CCCCO[C@H](CN(C)S(=O)(=O)c2cccs2)[C@H](C)CN([C@@H](C)CO)C(=O)c2cc(NC(=O)Cc3ccccc3)ccc2O1
cytotoxicity call (HSkMC): inactive
cytotoxicity call (HepG2): inactive
growth inhibition call (S. aureus RN4220): inactive
